# According to PubChem BioAssay (Tox21):
# Where “and” joins values, the source holds several entries; their conditions need not be identical. Equal entries are not always repeated. The inconclusive results got no clear call from the source; some entries with a clear call stand among them for comparison. Potencies beside an inconclusive call are fits to weak or partial responses and may not hold up. Calls of active or inactive are those of the source. Calls come from the whole dose curve; as a rule, active = well fitted activation curve with a large enough effect in the signal ratio in the repeat runs, with a control signal flat (not every such curve was filed as active); inconclusive = weak or mixed curves, or effect the other way; inactive = no such curve, though single readings can be large or run the other way; the % refers to the signal ratio.
# Target: Androgen receptor (Homo sapiens) (UniProt P10275)
# UniProt P10275, sequence (P10275 whole entry, looked up): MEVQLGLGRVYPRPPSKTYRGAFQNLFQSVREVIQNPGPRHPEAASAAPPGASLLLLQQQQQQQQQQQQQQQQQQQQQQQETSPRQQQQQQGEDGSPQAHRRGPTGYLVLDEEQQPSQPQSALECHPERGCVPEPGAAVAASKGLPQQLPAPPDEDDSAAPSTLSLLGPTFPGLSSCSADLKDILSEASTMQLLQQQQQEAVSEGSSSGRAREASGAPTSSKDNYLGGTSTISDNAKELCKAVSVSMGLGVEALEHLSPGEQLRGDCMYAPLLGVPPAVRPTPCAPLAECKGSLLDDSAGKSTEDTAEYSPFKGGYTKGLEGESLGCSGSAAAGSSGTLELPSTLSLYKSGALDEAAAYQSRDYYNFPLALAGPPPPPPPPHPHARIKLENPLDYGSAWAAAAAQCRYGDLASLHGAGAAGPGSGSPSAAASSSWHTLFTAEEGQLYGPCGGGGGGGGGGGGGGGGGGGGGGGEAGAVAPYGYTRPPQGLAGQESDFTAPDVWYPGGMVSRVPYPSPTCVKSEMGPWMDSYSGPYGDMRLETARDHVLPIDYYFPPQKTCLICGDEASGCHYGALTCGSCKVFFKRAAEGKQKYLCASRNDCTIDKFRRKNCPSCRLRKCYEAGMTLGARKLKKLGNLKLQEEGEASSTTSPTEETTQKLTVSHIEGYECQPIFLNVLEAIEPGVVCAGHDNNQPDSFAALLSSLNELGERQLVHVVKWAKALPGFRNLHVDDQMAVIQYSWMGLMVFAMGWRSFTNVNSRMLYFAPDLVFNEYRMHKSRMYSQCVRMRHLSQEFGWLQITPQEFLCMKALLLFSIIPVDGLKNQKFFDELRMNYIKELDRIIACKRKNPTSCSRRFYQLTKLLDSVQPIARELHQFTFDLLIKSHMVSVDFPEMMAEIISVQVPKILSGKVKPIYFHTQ
# Experiment: qHTS assay to identify small molecule agonists of the androgen receptor (AR) signaling pathway (AID 743036)
# Settings: HEK293 AR-UAS-bla GripTite, beta-lactamase FRET ratio, 16 h; activation: at 62.4 µM (top of the series) unless noted
# Excerpt: U.S. Tox21 Program National Center for Advancing Translational Sciences [NCATS] NIH Chemical Genomics Center [NCGC] U.S. Environmental Protection Agency [EPA] National Institutes of Environmental Health Sciences [NIEHS] National Toxicology Program [NTP] U.S. Food and Drug Administration [FDA] Tox21 Assay Overview: Androgen receptor (AR), a nuclear hormone receptor, plays a critical role in AR-dependent prostate cancer and other androgen related diseases. Endocrine disrupting chemicals (EDCs) and their interactions with steroid hormone receptors like AR may cause disruption of normal endocrine function as well as interfere with metabolic homeostasis, reproduction, developmental and behavioral functions. To identify the compounds that activate AR signaling, GeneBLAzer AR-UAS-bla-GripTite cell line (Invitrogen, Carlsbad, CA, USA) containing a beta-lactamase reporter gene under the control of an Upstream Activator Sequence (UAS) stably integrated into HEK293 cells was used to screen the Tox21 10K compound library.
# Tox21 Assay Protocol Summary: AR-bla cells were dispensed at 2,000 cells/6 uL/well of assay medium into black wall/clear-bottom 1536-well plates using a Multidrop Combi (ThermoFisher Scientific, Waltham, MA) dispenser. After the assay plates were incubated at 37C and 5% CO2 for 4 h, 23 nL of compounds dissolved in DMSO, positive controls or DMSO only was transferred to the assay plate by a Pintool station (Kalypsys, San Diego, CA). The plates were incubated at 37C and 5% CO2 for 16 h. Then 1 uL of LiveBLAzerTM B/G FRET substrate was added using a Bioraptr Flying Reagent Dispenser (FRD) workstation (Beckman Coulter, Indianapolis, IN, USA). The plates were incubated at room temperature for 2 h, and fluorescence intensity was measured by an Envision plate reader (PerkinElmer, Shelton, CT).
# % is set by controls: 0 for no effect and ±100 for the full control effect; potency is the fitted concentration of half-maximal effect; tags give direction and shape of the fitted curve or compound fluorescence and quenching.
SMILES,Potency,activation
CC(C)NC(=O)NC(C)C,inactive,
CN1CCN(CCC=C2c3ccccc3Sc3ccc(S(=O)(=O)N(C)C)cc32)CC1,,inconclusive: 15.4%
CCN(CC)CCn1c(=O)c(Cc2ccc(OC)cc2)nc2ccccc21,inactive,
CCCCOCCOC(=O)COc1cc(Cl)c(Cl)cc1Cl,inactive,
O=C(NOC[C@H](O)CO)c1ccc(F)c(F)c1Nc1ccc(I)cc1F,"inconclusive: 23.9 µM [rising, partial curve, poor fit]",
CCCCCCOc1ccc(C(=N)N(CCCC)CCCC)c2ccccc12,inconclusive: 21.3 µM [cytotoxic],
COc1cc(/C=C/C(=O)N2CCN(CC(=O)N3CCCC3)CC2)cc(OC)c1OC,inactive,
CCc1cccc(CC)c1N,inactive,
COc1cc(C(=S)N2CCOCC2)ccc1O,"inconclusive: 9.52 µM [rising, partial curve, poor fit]",
CCCCC(F)(F)[C@@]1(O)CC[C@H]2[C@@H](CC(=O)[C@@H]2CCCCCCC(=O)O)O1,"inconclusive: 30.1 µM [rising, single point]",
O=P(O)(O)OC(Cn1cncn1)(Cn1cncn1)c1ccc(F)cc1F,"inconclusive: 30.1 µM [activator, partial curve, poor fit]",
CC(C)=CCC/C(C)=C/C=C/C(C)=C/C=C/C(C)=C/C=C/C=C(C)/C=C/C=C(C)/C=C/C=C(\C)CCC=C(C)C,"inconclusive: 15.1 µM [activator, partial curve, poor fit]",
C=C[C@]1(C)C[C@@H](OC(=O)CSC(C)(C)CNC(=O)[C@H](N)C(C)C)[C@]2(C)[C@H](C)CC[C@]3(CCC(=O)[C@H]32)[C@@H](C)[C@@H]1O,,inconclusive: 2.66%
CC(C)CCCCCCN,inactive,
O=C(O)C(=O)Cc1ccccc1,inactive,
CN(C)c1cc(NC(=O)CNC(C)(C)C)c(O)c2c1C[C@H]1C[C@H]3[C@H](N(C)C)C(=O)C(C(N)=O)=C(O)[C@@]3(O)C(=O)C1=C2O,,inconclusive: 0.0786%
COc1cc(C)c(/C=C/C(C)=C/C=C/C(C)=C/C(=O)O)c(C)c1C,"inconclusive: 16.9 µM [rising, partial curve, poor fit]",
Cc1cc(O)c2c(c1)O[C@@]1(C)CC[C@H]3C(C)(C)CCCC34CO[C@@H]2[C@H]41 (stereo not given in full),inactive,
O=C(OCc1ccccc1)C(=O)OCc1ccccc1,inactive,
C=C1C(=O)O[C@H]2[C@H]1CC/C(C)=C\CC[C@@]1(C)O[C@@H]21,"inconclusive: 23.9 µM [falling, partial curve]",

SMILES,Potency,activation
c1ccc2c(c1)OCC(CN1CCCCC1)O2 (stereo not given),inconclusive: 0.0849 µM [activator],
COc1ccc2c(c1)c(CC(=O)OCC(=O)O)c(C)n2C(=O)c1ccc(Cl)cc1,"inconclusive: 26.8 µM [rising, partial curve, poor fit]",
CN(C)CCCN1c2ccccc2C(C)(C)c2ccccc21,inactive,
O=C1c2ccccc2C(=O)N1CO,inactive,
O=C(c1ccccc1O)c1ccccc1O,"inconclusive: 7.69 µM [rising, partial curve, poor fit]",
O=C(c1ccccc1)c1cccc(O)c1,,inconclusive: 9.34% [at 79.1 µM]
CS(=O)(=O)Nc1cc2occ(NC=O)c(=O)c2cc1Oc1ccccc1,"inconclusive: 23.9 µM [fluorescent, partial curve, poor fit]",
O=C[C@@H](O)[C@H](O)[C@H](O)CO,inactive,
CCOc1cc(CC(=O)N[C@@H](CC(C)C)c2ccccc2N2CCCCC2)ccc1C(=O)O,inactive,
CCC(=O)NCCC1CCc2ccc3c(c21)CCO3 (stereo not given),inactive,
COc1cc(NS(C)(=O)=O)ccc1Nc1c2ccccc2nc2ccccc12,active: 10.7 µM,
N#Cc1ccc2c(c1)N(CCCN1CCC(O)CC1)c1ccccc1S2,,inconclusive: 0.401%
C[C@@H]1C(=O)NC2=Nc3cccc(Cl)c3CN21,inactive,
CCC(=O)O[C@H]1CC[C@H]2[C@@H]3CCc4cc(O)ccc4[C@H]3CC[C@]12C,active: 3.01 µM,
Cc1ccc(C(=O)O)cc1[N+](=O)[O-],inconclusive: 60.8 µM [activator],
CCCC(=O)N1CCCN(c2nc(N)c3cc(OC)c(OC)cc3n2)CC1,inactive,
O=C(O)CCC/C=C\C[C@@H]1[C@@H](/C=C/[C@@H](O)COc2cccc(C(F)(F)F)c2)[C@H](O)C[C@@H]1O,"inconclusive: 23.9 µM [rising, partial curve, poor fit]",
O=C(O)c1cccc(/C=C2/C[C@@H]3[C@@H](/C=C/[C@@H](O)C4CCCCC4)[C@H](O)C[C@@H]3O2)c1,"inconclusive: 23.9 µM [rising, partial curve, poor fit]",
COC(=O)C[C@](O)(CCCC(C)(C)O)C(=O)O[C@@H]1C(OC)=CC23CCCN2CCc2cc4c(cc2[C@H]13)OCO4 (stereo not given in full),,inconclusive: 4.61% and inconclusive: -0.511%
CN(C(=O)C(Cl)Cl)c1ccc(OC(=O)c2ccco2)cc1,"inconclusive: 30.1 µM [rising, partial curve, poor fit]",
